The values that follow come from the supplement of paper PMC3724861.

This is one part of the list.

For the assay, the system named is T1, Caupolican (Caup) homeodomain DNA-binding domain.
T1 sequence: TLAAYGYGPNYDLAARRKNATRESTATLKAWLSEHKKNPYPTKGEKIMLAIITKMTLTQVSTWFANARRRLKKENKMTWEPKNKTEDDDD
Kind of assay: PBM E-score (8-mer, recovered from the published 9-mer minima) (E-score (dimensionless, -0.5 to 0.5)); Drosophila protein; higher = stronger relative binding preference, active = 0.31 or more. In a few lines:
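Caup's homeodomain DNA-binding domain (residues 214-303) was made by in vitro transcription and translation and applied at 100 nM to custom-designed protein binding microarrays. Each value is an enrichment score that gives relative binding preference for a short DNA word, with higher meaning stronger. The 8-mer values were recovered from published 9-mer scores, each of which was the minimum of its two constituent 8-mer scores. A cutoff of 0.31 marks candidate sites.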
Take TAGACCTA: the “PBM E-score” value was inactive: 0.028.

Turning to CCACATAA, the “PBM E-score” value was inactive: 0.0629.

Turning to TAATATTA, the “PBM E-score” value was inactive: 0.217.

Consider ATCGCAAT, for which the “PBM E-score” value is inactive: 0.068.

In the case of CCTCTCGC, the “PBM E-score” value was inactive: -0.131.

Turning to GATTTGGC, the “PBM E-score” value was inactive: 0.0186.

Take CTCACTTC: the “PBM E-score” value is inactive: -0.186.

AGCATAGA: the “PBM E-score” value was inactive: 0.024.

On to ATGCCCGA, for which the “PBM E-score” value is inactive: -0.0379.

In the case of ACGTCACT, the “PBM E-score” value was inactive: 0.0389.

With CACAAGCC, the “PBM E-score” value is inactive: 0.00236.

Consider CGACGATC, for which the “PBM E-score” value was inactive: 0.00125.

For the sequence CCCATTTA, the “PBM E-score” value is inactive: -0.0188.

Take AGCCACAT: the “PBM E-score” value is inactive: 0.0502.

CGCGACAA: the “PBM E-score” value is inactive: 0.135.

On to AACAGTGT, for which the “PBM E-score” value was inactive: 0.217.

For the sequence ATCTACTC, the “PBM E-score” value was inactive: -0.00774.

In the case of CTAGAGCA, the “PBM E-score” value was inactive: -0.132.

For the sequence ATTCTCAC, the “PBM E-score” value was inactive: 0.0568.

Consider GTACAGGA, for which the “PBM E-score” value was inactive: 0.215.

For the sequence ACGCCGTG, the “PBM E-score” value is inactive: -0.0416.

In the case of ACTGTAAT, the “PBM E-score” value was at least 0.25.

For the sequence AGTGGAGG, the “PBM E-score” value is inactive: -0.192.

As for ACATGCGG, the “PBM E-score” value was inactive: 0.195.

For the sequence ATCGGAGG, the “PBM E-score” value is at least -0.0367.

As to GCTATGCA, the “PBM E-score” value is inactive: -0.0587.

On to CGGTTGAA, for which the “PBM E-score” value is inactive: 0.0594.

On to AGAGACGC, for which the “PBM E-score” value is inactive: -0.123.

As for GCCCCGGC, the “PBM E-score” value was inactive: -0.316.

Consider CGGTCCAC, for which the “PBM E-score” value is inactive: -0.159.

GGGCACGA: the “PBM E-score” value is inactive: -0.135.

As for AAGAGCCG, the “PBM E-score” value is inactive: -0.192.

With CACTTGAC, the “PBM E-score” value is inactive: -0.00051.

As to GACTTATC, the “PBM E-score” value is inactive: -0.0506.

In the case of AGCTACTA, the “PBM E-score” value was inactive: 0.0754.

For the sequence GTACTACA, the “PBM E-score” value is active: 0.376.

On to ACTTTTTG, for which the “PBM E-score” value was inactive: 0.0504.

As to ACCAGTCC, the “PBM E-score” value is inactive: -0.146.

On to TAGAATGA, for which the “PBM E-score” value is inactive: 0.1.

On to GGGCGACA, for which the “PBM E-score” value is inactive: 0.00421.

On to AATCATCG, for which the “PBM E-score” value was inactive: 0.0554.

Take GCCGCGAC: the “PBM E-score” value was inactive: -0.16.

For CATGTTAA, the “PBM E-score” value is active: 0.446.

As for ATTAGGCC, the “PBM E-score” value was inactive: -0.105.

With ATCCCGAG, the “PBM E-score” value was inactive: -0.0679.

Turning to GAGGAATA, the “PBM E-score” value was inactive: 0.0804.

Take CCGCTTAC: the “PBM E-score” value is inactive: 0.00718.

For GAACATGA, the “PBM E-score” value is active: 0.421.

As to CGAAATTA, the “PBM E-score” value is inactive: 0.0602.

As to ACAAGAAG, the “PBM E-score” value was inactive: 0.183.

Consider ATAAGAGG, for which the “PBM E-score” value was inactive: -0.0631.

On to GTGGCAGA, for which the “PBM E-score” value is inactive: -0.127.

For the sequence ATGTGCCG, the “PBM E-score” value was inactive: 0.00478.

On to CATCCCGG, for which the “PBM E-score” value is inactive: -0.0912.

Turning to ACCTGTAG, the “PBM E-score” value is inactive: 0.0685.

For CCGGCACC, the “PBM E-score” value was inactive: -0.133.

Turning to CACGCGCG, the “PBM E-score” value was inactive: -0.13.

In the case of CTTATGCC, the “PBM E-score” value is inactive: -0.12.

Turning to GCAAGGGC, the “PBM E-score” value was inactive: -0.246.

For the sequence AACGCCAG, the “PBM E-score” value was inactive: -0.0943.

As to ATCGATTG, the “PBM E-score” value is at least 0.168.

On to CATGCCTA, for which the “PBM E-score” value was inactive: -0.00155.

Turning to CCCTCGCC, the “PBM E-score” value is inactive: -0.245.

For TTGCCAAA, the “PBM E-score” value is inactive: -0.0145.

For TACAAACA, the “PBM E-score” value was active: ≥ 0.368.

As to AACCCTGA, the “PBM E-score” value was inactive: 0.0485.

As to CTGTGCTA, the “PBM E-score” value was inactive: -0.0423.

With ACGACTGC, the “PBM E-score” value is inactive: -0.0879.

Turning to AAACTCAC, the “PBM E-score” value was inactive: -0.0156.

As for CGCCAAAG, the “PBM E-score” value was inactive: -0.184.

Regarding ATAGATTG, the “PBM E-score” value is inactive: 0.0996.

For the sequence GAGCCACA, the “PBM E-score” value was inactive: -0.0491.

On to CCCAATCA, for which the “PBM E-score” value was inactive: -0.0612.

Turning to CGTAGGTA, the “PBM E-score” value was inactive: 0.00757.

For the sequence ATGTGACA, the “PBM E-score” value was inactive: 0.295.

Turning to GCCTTGTA, the “PBM E-score” value was active: 0.321.

As to CTATCGCA, the “PBM E-score” value is inactive: -0.029.

As for GGGTCGAA, the “PBM E-score” value is inactive: -0.183.

ATACCGGA: the “PBM E-score” value is inactive: 0.083.

Regarding CGCAGAAG, the “PBM E-score” value is inactive: -0.119.

As for AGATCTCC, the “PBM E-score” value was inactive: -0.109.

With AGGCCGGG, the “PBM E-score” value is inactive: -0.268.

On to CAAGTGCG, for which the “PBM E-score” value was inactive: -0.0347.

As to CGAATACC, the “PBM E-score” value is inactive: 0.0173.

Consider AGATCCAA, for which the “PBM E-score” value was inactive: 0.0349.

In the case of ATTGATCC, the “PBM E-score” value was inactive: 0.0574.

As for TAACGTTA, the “PBM E-score” value was inactive: 0.117.

Turning to TCGCGCGA, the “PBM E-score” value was inactive: -0.135.

As for AGAACTAG, the “PBM E-score” value is inactive: 0.051.

For GGCGGGGA, the “PBM E-score” value is inactive: -0.106.

Take ACAGTGGT: the “PBM E-score” value is inactive: 0.0669.

Turning to CCGATCTA, the “PBM E-score” value was inactive: -0.0062.

ATCCTTTC: the “PBM E-score” value is inactive: 0.0514.

Turning to GGCCTAAA, the “PBM E-score” value was inactive: -0.0132.

With GACGTCGA, the “PBM E-score” value is inactive: 0.00514.

Regarding ACTGTCGA, the “PBM E-score” value was inactive: 0.0243.

With ACCAGTGG, the “PBM E-score” value is inactive: 0.0166.

In the case of ACAGACAG, the “PBM E-score” value was inactive: 0.127.

Turning to GAATGCCA, the “PBM E-score” value was inactive: -0.126.

With AGTAGCGG, the “PBM E-score” value was inactive: -0.174.

On to CGAAACGC, for which the “PBM E-score” value is inactive: -0.111.

In the case of AGTTGCTC, the “PBM E-score” value was inactive: 0.0426.

Take CGGTTACC: the “PBM E-score” value was inactive: -0.0529.

For GCGTCAAA, the “PBM E-score” value is inactive: -0.0205.

ACACGCGT: the “PBM E-score” value is inactive: 0.266.

Consider AAATGACC, for which the “PBM E-score” value is inactive: -0.0401.

With AAAACTTT, the “PBM E-score” value is inactive: 0.0241.

As to CACTGGTC, the “PBM E-score” value was inactive: -0.00509.

As to AACGGCCA, the “PBM E-score” value is at least -0.0672.

With ATATTAAG, the “PBM E-score” value is inactive: 0.169.

GCAACGCC: the “PBM E-score” value was inactive: -0.0458.

For the sequence GAGTACCC, the “PBM E-score” value was inactive: -0.0435.

CGCCCAGC: the “PBM E-score” value is inactive: -0.274.

As for AGGCCGTC, the “PBM E-score” value was inactive: -0.158.

In the case of CACAGCCA, the “PBM E-score” value is inactive: 0.0164.

Regarding AGCTGGGA, the “PBM E-score” value was at least -0.0926.

AGCCATCC: the “PBM E-score” value is inactive: -0.117.

For CTGAACAC, the “PBM E-score” value is inactive: 0.235.

For GCGTAGGA, the “PBM E-score” value is inactive: -0.169.

As to AGGTATAG, the “PBM E-score” value is inactive: -0.0297.

In the case of ATCCGAGA, the “PBM E-score” value was inactive: 0.0105.

For CTACCTGC, the “PBM E-score” value was inactive: -0.139.

Consider CACGACCA, for which the “PBM E-score” value was inactive: 0.098.

Turning to CTTGGAAA, the “PBM E-score” value was inactive: 0.0432.

Regarding GCTTGTCC, the “PBM E-score” value is inactive: 0.305.

In the case of ACCAGCCT, the “PBM E-score” value is inactive: -0.101.

For CCAGCGAG, the “PBM E-score” value is inactive: -0.183.

In the case of CCCGCTTC, the “PBM E-score” value is inactive: -0.228.

For ATCAATTC, the “PBM E-score” value was inactive: 0.0533.

In the case of GTTAAAAA, the “PBM E-score” value is inactive: 0.142.

Turning to AAGCCTAC, the “PBM E-score” value is inactive: -0.0275.

Consider CACCGGGC, for which the “PBM E-score” value is inactive: -0.224.

With AACCCACT, the “PBM E-score” value was inactive: -0.0915.

On to GGGGGTGA, for which the “PBM E-score” value is inactive: -0.237.

In the case of AGGAGGAT, the “PBM E-score” value is at least -0.00134.

On to TGTCCAAA, for which the “PBM E-score” value was at least 0.295.

As to AAGACCTT, the “PBM E-score” value was inactive: -0.00031.

As for GTGTCCGA, the “PBM E-score” value was inactive: 0.151.

Take ATTCCGTC: the “PBM E-score” value is inactive: 0.0459.

For the sequence GTTGCGCA, the “PBM E-score” value was inactive: -0.0292.

As to AGCAAGCG, the “PBM E-score” value was inactive: 0.0226.

As for CCTTGGAC, the “PBM E-score” value is inactive: 0.00105.

In the case of GGGGACAC, the “PBM E-score” value was inactive: -0.0791.
